From the supplement of paper PMC11283458
This is one part of the list. Single values are uncertain, as repeats are few or missing.

The molecules below were run on Zdhhc20 alternative exon (endogenous) (assay: delta PSI of alternative exon relative to 0.4% DMSO control (RT-PCR) (percentage points); higher = more exon inclusion). Conditions: concentration: not stated (optimised per compound); Neuro-2a.
Procedure: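 Reads PSI of the Mef2d reporter microexon and of endogenous mouse neural alternative exons. dPSI is relative to the 0.4% DMSO control, single replicate.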
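Note: exons read include endogenous Mef2d, Mast2, Ergic3 and Trappc9 microexons plus the longer neural-regulated Zdhhc20, Mgrn1 and Asph cassette exons, alongside the reporter microexon.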

Row | SMILES | delta PSI of alternative exon
1 | COc1ccc(/C=C/C=C2C(=O)NC(=O)NC2=O)cc1 | 0.156
2 | CC(=O)OC(C)(C)C=CC(=O)[C@](C)(O)[C@H]1[C@H](O)C[C@@]2(C)[C@@H]3CC=C4[C@@H](CC[C@H](O)C4(C)C)[C@]3(CO)C(=O)C[C@]12C | 19.3
3 | Cc1n[nH]c2ccc(-c3cncc(OC[C@@H](N)Cc4c[nH]c5ccccc45)c3)cc12 | 32
4 | O=C1NC(=O)C(=CC=Cc2ccccc2)C(=O)N1 | -2.22
